Reference: the supplement of paper PMC10126150
Sequences with one replicate were seen in a single cluster, so their values are uncertain.

System: ATP
Assay: switch fluorescence ratio, 500 uM ATP over buffer (Cy3 cluster intensity, sum of 5 cycles each) (fold (ratio)); higher = stronger signal-on switching upon ATP binding; sequences stand for … in TCGTCGGCAGCGTCAGATGTGTATAAGAGACAGTTTTTTTTTTTTTTTTTTTTTTTTT…TC
Settings: aptamer strand: ATP DNA aptamer (quencher-CACCTGGGGGAGTATTGCGGAGGAAGG + anchor), 100 nM annealed; ATP concentration: 500 uM; one replicate
How it was run: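 Clusters with intensities outside 100-1000 RFU were excluded. The remaining Cy3-labelled switching-strand clusters on a modified Illumina MiSeq flow-cell had been annealed to 100 nM quencher-labelled ATP aptamer and imaged in selection buffer, then after 15 min with 500 uM ATP at 22 °C, for five cycles separated by NaOH stripping and re-annealing. The fluorescence ratio, averaged per switch-domain sequence, is each cluster's summed target-cycle Cy3 intensity over its summed buffer-cycle Cy3 intensity.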
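Also: ATP exposure 15 min at 22 °C before imaging.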

Row | Sequence | switch fluorescence ratio
1 | ATGCTAACCG | 1.02
2 | GGGAGTAGTG | 0.964
3 | ACCGCTACGC | 1.68
4 | TCGAGCACAG | 1.28
5 | TTGAGAAATA | 0.972
6 | TTTAGAACCC | 1.08
7 | CACGGGGTTC | 1.03
8 | AAAGCAGTCT | 1.14
9 | CTTTGTTTTC | 0.961
10 | TGGGCCGCAG | 1.11
11 | GAGGCTCATC | 1.03
12 | TTACCCCCTT | 1.04
13 | GCAACCGAAA | 2.06
14 | TTTTGGTCGC | 1.05
15 | AGGAGTAGGG | 0.973
16 | GACGTTTACT | 1.08
17 | AAACGCCCAA | 1.16
18 | CGGAAAGGAG | 0.983
19 | TCTTTTACAG | 1.01
20 | CTGATGCCTA | 0.925
21 | AAGGTGTTCC | 1.02
22 | TAAGTGGTCT | 1.02
23 | CTTCTAGAG | 1.01
24 | TACAGGGCTA | 0.988
25 | CCATTGTCCA | 1.02

Row | Sequence | switch fluorescence ratio
26 | GAGGGTGAAA | 1.21
27 | TCTTATTACT | 1.05
28 | AAAAAATTTC | 1.04
29 | ACGGAATTCT | 1.09
30 | TCACGTATGC | 1.01
31 | ACGCACGCTG | 1.55
32 | CAATCGTATT | 0.983
33 | ACTCGTCGCG | 1.06
34 | ACAAGGGGCC | 1.06
35 | ATTGTTTAGT | 1.02
36 | TTGGTCGACA | 0.997
37 | CCGTTCCTGT | 1.05
38 | TGCCAGTCGT | 1.03
39 | ACCCGTGTTC | 1.05
40 | CGACGTACGT | 1.2
41 | TGAATGGAGT | 0.976
42 | AATGGAAAGG | 1.01
43 | GAACGACGGA | 1.03
44 | AGTACTGGGT | 0.984
45 | CAAACGGCTT | 0.996
46 | ACTAGCATGT | 1
47 | ATGCCCAAGG | 1.18
48 | CCATAGCGCG | 1.2
49 | GGTCTATAAT | 0.999
50 | GTCCCAGCAG | 1.08

Row | Sequence | switch fluorescence ratio
51 | TCAACCAAAT | 0.997
52 | ACATCCACT | 1.13
53 | TGCATTTCTA | 1.01
54 | GCATCTCAAC | 1.06
55 | CAGGTCAAGA | 0.983
56 | TTGTCGT | 1
57 | CGACGATGCT | 1.17
58 | ACATTATGCC | 1.07
59 | AGCATCTGGC | 1.02
60 | TCCGAGTCT | 1.01
61 | CAGACCCGTC | 0.994
62 | GCCGCTCAGA | 1.04
63 | CGCACCGTTT | 1.02
64 | ACCCAGGCGT | 3.96
65 | TCGTTATTA | 0.978
66 | TTCATGTAGG | 1.01
67 | GGGCGGCCCG | 0.938
68 | GTATGTCGGG | 0.986
69 | GTTGCGCTTG | 1.01
70 | CACGACTTCT | 1.03
71 | GATTGATGGC | 1.01
72 | TACGTGGGGA | 1.01
73 | AGCCTTATTG | 0.987
74 | TTTGCTGCTA | 1.01
75 | GAGCAGGGGA | 1.05

Row | Sequence | switch fluorescence ratio
76 | ACTCTTGGCC | 1.03
77 | GACTTACTTT | 1.14
78 | CGTTGGATTA | 1.01
79 | CGCGAAACG | 0.994
80 | AACCTGCGCG | 1.15
81 | GCTTCGTAGG | 0.985
82 | GGTAGGGCAT | 1
83 | GATAGGTCG | 1.02
84 | TTTCCTGGTG | 1.13
85 | CAGGCATGTT | 0.995
86 | AACGTCTCCG | 1.1
87 | TTGGAACTGT | 1.05
88 | CGCTTTGGCA | 1.02
89 | ACGGTATCCA | 1.15
90 | CAGTCAGGA | 0.971
91 | GCAGTGGGAC | 1.29
92 | AAAGGCAGAT | 1.01
93 | TTCTAGAGCC | 1.1
94 | TTAGACACAC | 1.42
95 | GGTTGGGAGT | 1.01
96 | AGCACTTATG | 0.977
97 | TCAGGACGAG | 0.966
98 | TGCAACATCG | 1.03
99 | TATCCGAGAG | 1.07
100 | CACAGCGTAT | 1.06
